Data as given in patent US5053418A, “Antiprotozoal agents” (Burroughs Wellcome Co., priority 1983, dated 1991).
The name of at least one read-out is uncertain.

System: P.falciparum
Experiment: In vitro activity against P.falciparum: inhibition of 3H-adenosine/3H-hypoxanthine incorporation (modified Desjardins)
Format: cell-based
Procedure: Each of the two compounds to be tested were dissolved in ethanol at a concentration of 10 mg/L and serially diluted with RPMI 1640 medium and 10% (v/v) human plasma in microtitration plates. P.falciparum-parasitised and fresh blood cells were added together with ^3 H-adenosine or ^3 H-hypoxanthinein RPMI 1640 medium and 10% human plasma. The cultures were then incubated at 37° C. for 43 hours, harvested and the particulate contents collected on glass fibre filter papers which were washed copiously with water using a Cooke Microtiter System (Dynatech Labs. Europe); the filter papers were dried and the radioactivity measured using a scintillation counter. Infected, untreated and uninfected cultures were included as controls. Percent inhibition was correlated with dose to provide an IC50 for each drug alone.
For subsequent combination experiments the individual drug solutions and mixtures thereof were serially diluted.
By the method of Example 1 the effect of a number of naphthoquinone/clopidol (4-pyridinol) combinations on P.falciparum in vitro were determined.

CC(C)(C)C1CCCC(C2=C(O)C(=O)c3ccccc3C2=O)C1 (stereo not shown)
% inhibition (combination) (naphthoquinone 0.0500 + clopidol 0.200 mg/L): 35% | % inhibition (combination) (naphthoquinone 0.0500 + clopidol 0.400 mg/L): 51% | % inhibition (combination) (naphthoquinone 0.100 + clopidol 0.200 mg/L): 47% | % inhibition (combination) (naphthoquinone 0.100 + clopidol 0.400 mg/L): 60%

Cc1nc(C)c(Br)c(O)c1Br [X = Br, R^3 = Me, 3,5-dibromo-2,6-dimethyl-4-pyridinol]
% inhibition (combination) (2-(4-t-butylcyclohexyl)-3-hydroxy-1,4-naphthoquinone 0.00003125 + 4-pyridinol analogue 0.125 mg/L): 16% | % inhibition (combination) (2-(4-t-butylcyclohexyl)-3-hydroxy-1,4-naphthoquinone 0.00003125 + 4-pyridinol analogue 0.25 mg/L): 27% | % inhibition (combination) (2-(4-t-butylcyclohexyl)-3-hydroxy-1,4-naphthoquinone 0.0000625 + 4-pyridinol analogue 0.125 mg/L): 30% | % inhibition (combination) (2-(4-t-butylcyclohexyl)-3-hydroxy-1,4-naphthoquinone 0.0000625 + 4-pyridinol analogue 0.25 mg/L): 40%

Cc1ccc(C2CCC(C3=C(O)C(=O)c4ccccc4C3=O)CC2)cc1C (stereo not shown)
% inhibition (combination) (naphthoquinone 0.000125 + clopidol 0.100 mg/L): 38% | % inhibition (combination) (naphthoquinone 0.000125 + clopidol 0.200 mg/L): 60% | % inhibition (combination) (naphthoquinone 0.00025 + clopidol 0.100 mg/L): 48% | % inhibition (combination) (naphthoquinone 0.00025 + clopidol 0.200 mg/L): 55%

CCCCCCCCCCCCCC1=C(O)C(=O)c2ccccc2C1=O [(CH2)12 Me]
% inhibition (combination) (naphthoquinone 0.0078 + clopidol 0.10 mg/L): 26% | % inhibition (combination) (naphthoquinone 0.0078 + clopidol 0.20 mg/L): 36% | % inhibition (combination) (naphthoquinone 0.0156 + clopidol 0.10 mg/L): 28% | % inhibition (combination) (naphthoquinone 0.0156 + clopidol 0.20 mg/L): 42%
